# This continues a long series; more values of the same kind are listed elsewhere.
# Assay: Tissue distribution of radioactivity in SD rats
# Type: in vivo, Sprague–Dawley rats
# Settings: oral 1 mg/kg
smiles,measurement,setting,value
"Cc1cc(N2CCN([C@@H]3CN[C@H](C(=O)N4CCSC4)C3)CC2)n(-c2ccccc2)n1 [Teneligliptin, 3‐[(2S,4S)‐4‐[4‐(3‐methyl‐1‐phenyl‐1H‐pyrazol‐5‐yl)piperazin‐1‐yl]pyrrolidin‐2‐ylcarbonyl] thiazolidine]",Concentration of radioactivity,"Blood, 0.5 h",209.9 ± 57.1 ng eq/ml or g
same,Concentration of radioactivity,"Blood, 5 h",29.9 ± 13.7 ng eq/ml or g
same,Concentration of radioactivity,"Blood, 12 h",9.3 ± 2.1 ng eq/ml or g
same,Concentration of radioactivity,"Blood, 24 h",3.9 ± 0.4 ng eq/ml or g
same,Concentration of radioactivity,"Blood, 168 h",0.6 ± 0.7 (N.C.) ng eq/ml or g
same,Concentration of radioactivity,"Bone marrow, 0.5 h",880.0 ± 223.0 ng eq/ml or g
same,Concentration of radioactivity,"Bone marrow, 5 h",289.9 ± 63.9 ng eq/ml or g
same,Concentration of radioactivity,"Bone marrow, 12 h",159.2 ± 15.7 ng eq/ml or g
same,Concentration of radioactivity,"Bone marrow, 24 h",98.6 ± 7.0 ng eq/ml or g
same,Concentration of radioactivity,"Bone marrow, 72 h",30.7 ± 5.7 (N.C.) ng eq/ml or g
same,Concentration of radioactivity,"Bone marrow, 168 h",7.0 ± 4.9 (N.C.) ng eq/ml or g
same,Concentration of radioactivity,"Bone, 24 h",11.8 ± 3.1 ng eq/ml or g
same,Concentration of radioactivity,"Bone, 72 h",3.4 ± 0.9 (N.C.) ng eq/ml or g
same,Concentration of radioactivity,"Bone, 168 h",0.6 ± 0.7 (N.C.) ng eq/ml or g
same,Concentration of radioactivity,"Brain, 0.5 h",24.4 ± 5.3 ng eq/ml or g
same,Concentration of radioactivity,"Brain, 5 h",7.7 ± 2.6 ng eq/ml or g
same,Concentration of radioactivity,"Brain, 12 h",3.3 ± 0.7 ng eq/ml or g
same,Concentration of radioactivity,"Brown fat, 0.5 h",501.8 ± 157.5 ng eq/ml or g
same,Concentration of radioactivity,"Brown fat, 5 h",134.2 ± 55.8 ng eq/ml or g
same,Concentration of radioactivity,"Brown fat, 12 h",57.6 ± 10.4 ng eq/ml or g
same,Concentration of radioactivity,"Brown fat, 24 h",26.9 ± 2.8 ng eq/ml or g
same,Concentration of radioactivity,"Brown fat, 72 h",7.5 ± 1.3 (N.C.) ng eq/ml or g
same,Concentration of radioactivity,"Brown fat, 168 h",3.0 ± 1.1 (N.C.) ng eq/ml or g
same,Concentration of radioactivity,"Cecum, 0.5 h",332.4 ± 101.9 ng eq/ml or g
same,Concentration of radioactivity,"Cecum, 5 h",1103.8 ± 713.4 ng eq/ml or g
same,Concentration of radioactivity,"Cecum, 12 h",627.2 ± 294.5 ng eq/ml or g
same,Concentration of radioactivity,"Cecum, 24 h",123.4 ± 23.7 ng eq/ml or g
same,Concentration of radioactivity,"Cecum, 72 h",12.8 ± 2.7 (N.C.) ng eq/ml or g
same,Concentration of radioactivity,"Cecum, 168 h",5.6 ± 2.5 (N.C.) ng eq/ml or g
same,Concentration of radioactivity,"Eyeball, 0.5 h",107.9 ± 27.9 ng eq/ml or g
same,Concentration of radioactivity,"Eyeball, 5 h",39.0 ± 11.9 ng eq/ml or g
same,Concentration of radioactivity,"Eyeball, 12 h",17.4 ± 3.8 ng eq/ml or g
same,Concentration of radioactivity,"Eyeball, 24 h",8.4 ± 0.9 ng eq/ml or g
same,Concentration of radioactivity,"Eyeball, 72 h",1.5 ± 0.3 (N.C.) ng eq/ml or g
same,Concentration of radioactivity,"Fat, 0.5 h",120.4 ± 28.3 ng eq/ml or g
same,Concentration of radioactivity,"Fat, 5 h",33.3 ± 9.7 ng eq/ml or g
same,Concentration of radioactivity,"Fat, 12 h",17.2 ± 2.8 ng eq/ml or g
same,Concentration of radioactivity,"Fat, 24 h",7.8 ± 1.2 ng eq/ml or g
same,Concentration of radioactivity,"Fat, 72 h",2.2 ± 1.5 (N.C.) ng eq/ml or g
same,Concentration of radioactivity,"Large intestine (excluding the cecum), 0.5 h",416.0 ± 110.3 ng eq/ml or g
same,Concentration of radioactivity,"Large intestine (excluding the cecum), 5 h",342.6 ± 160.7 ng eq/ml or g
same,Concentration of radioactivity,"Large intestine (excluding the cecum), 12 h",475.8 ± 195.4 ng eq/ml or g
same,Concentration of radioactivity,"Large intestine (excluding the cecum), 24 h",120.7 ± 13.9 ng eq/ml or g
same,Concentration of radioactivity,"Large intestine (excluding the cecum), 72 h",19.6 ± 3.5 (N.C.) ng eq/ml or g
same,Concentration of radioactivity,"Large intestine (excluding the cecum), 168 h",7.4 ± 3.3 (N.C.) ng eq/ml or g
same,Concentration of radioactivity,"Medulla oblongata, 0.5 h",26.6 ± 6.0 ng eq/ml or g
same,Concentration of radioactivity,"Medulla oblongata, 5 h",9.3 ± 4.5 ng eq/ml or g
same,Concentration of radioactivity,"Medulla oblongata, 12 h",3.0 ± 0.3 ng eq/ml or g
same,Concentration of radioactivity,"Mesenteric lymph nodes, 0.5 h",853.9 ± 176.8 ng eq/ml or g
same,Concentration of radioactivity,"Mesenteric lymph nodes, 5 h",269.9 ± 46.4 ng eq/ml or g
same,Concentration of radioactivity,"Mesenteric lymph nodes, 12 h",128.0 ± 21.0 ng eq/ml or g
same,Concentration of radioactivity,"Mesenteric lymph nodes, 24 h",77.9 ± 9.6 ng eq/ml or g
same,Concentration of radioactivity,"Mesenteric lymph nodes, 72 h",22.6 ± 3.3 (N.C.) ng eq/ml or g
same,Concentration of radioactivity,"Mesenteric lymph nodes, 168 h",9.2 ± 2.2 (N.C.) ng eq/ml or g
same,Concentration of radioactivity,"Pituitary, 0.5 h",1412.4 ± 316.0 ng eq/ml or g
same,Concentration of radioactivity,"Pituitary, 5 h",406.6 ± 198.9 ng eq/ml or g
same,Concentration of radioactivity,"Pituitary, 12 h",149.8 ± 20.6 ng eq/ml or g
same,Concentration of radioactivity,"Pituitary, 24 h",68.6 ± 11.7 ng eq/ml or g
same,Concentration of radioactivity,"Pituitary, 72 h",13.0 ± 15.0 (N.C.) ng eq/ml or g
same,Concentration of radioactivity,"Plasma, 0.5 h",266.5 ± 74.9 ng eq/ml or g
same,Concentration of radioactivity,"Plasma, 5 h",37.2 ± 17.3 ng eq/ml or g
same,Concentration of radioactivity,"Plasma, 12 h",10.0 ± 2.1 ng eq/ml or g
same,Concentration of radioactivity,"Plasma, 24 h",4.5 ± 0.3 ng eq/ml or g
same,Concentration of radioactivity,"Small intestine, 0.5 h",4476.6 ± 1778.8 ng eq/ml or g
same,Concentration of radioactivity,"Small intestine, 5 h",2688.4 ± 1240.2 ng eq/ml or g
same,Concentration of radioactivity,"Small intestine, 12 h",344.0 ± 52.7 ng eq/ml or g
same,Concentration of radioactivity,"Small intestine, 24 h",179.7 ± 29.3 ng eq/ml or g
same,Concentration of radioactivity,"Small intestine, 72 h",57.8 ± 11.4 (N.C.) ng eq/ml or g
same,Concentration of radioactivity,"Small intestine, 168 h",34.8 ± 13.0 (N.C.) ng eq/ml or g
same,Concentration of radioactivity,"Stomach, 0.5 h",2193.4 ± 953.1 ng eq/ml or g
same,Concentration of radioactivity,"Stomach, 5 h",243.1 ± 117.9 ng eq/ml or g
same,Concentration of radioactivity,"Stomach, 12 h",47.6 ± 12.0 ng eq/ml or g
same,Concentration of radioactivity,"Stomach, 24 h",21.7 ± 1.7 ng eq/ml or g
same,Concentration of radioactivity,"Stomach, 72 h",4.2 ± 1.5 (N.C.) ng eq/ml or g
same,Concentration of radioactivity,"Stomach, 168 h",1.3 ± 1.6 (N.C.) ng eq/ml or g
